Data on 19 variants can be found in the RNAGym collection of RNA variant scans (doi:10.7554/elife.90254).

Read counts are not given, so values of variants with three or more changes are uncertain.

B1: LINE1-full (parent)
chain: UACGUAGGUGGUUUUCCCCUGAUAGUGCUAAGGGGGCCUGGAAGUUUGGACUGGGCAGAGCUCAACACAGCGUGGCAAAGUGGCUGUGGCUAGACUGCCUCUCUGGAUUCCUCGUCACUCAGCAGGGCAUCUCUGAGAGAAAUGCC

The variants in this data set derive from B1. Description: self-cleavage, relative activity (ratio to wild type); higher = more cleavage; in vitro, sequencing; the parent is a self-cleaving ribozyme.
As to UACGUAGGUGGUUUCCCCCUGAUAGUGCUAAGGGGGCCUAGAAGUUUGGACUGGGCAGAGCUCAACACAGCGUGGCAAAGUGGCUGUGGCUAGACUGCCUCUCUGGAUUCCUCGUCACUCAGCGGGGCAUCUCUGAGAGAAAUGCC [U15C G40A A124G], the self-cleavage was 0.66.
Turning to UACAUAGGUGGUCUUCCCCUGAUAGUGCUAAGGGGGCCUGGAAGUUUGGACUGGGCAGAGCUCAACACCGCGUGGCAAAGUGGCUGUGGCUAGACUGCCUCUCUGGAUUCCUCGUCACUCAGCAGAGCAUCUCUGAGAGAAAUGCC [G4A U13C A69C G126A], the self-cleavage was 0.29.
Turning to UACGUAGGUGGUUUCCCCCUGAUAGUGCUAAGGUGGCCUGGAGGUUUGGACUGGGCAGAGCUCAACACAGCGUGGCAAAGUGGCUGUGGCUAGACUGCCUCUCUGGAUUCCUCGUCACUCAGCAGGGCAUCUCUGAGAGAAAUGGC [U15C G34U A43G C145G], the self-cleavage amounted to 2.35.
For UACGUAGGUGGUUUCCCCCUGAUAGUGCUAAGGGGGCCUGGAAGUUUGGGCUGGGCAGAGCUCAACACAGCGUGGCAAAGUGGCUGUGGCUAGACUGCCUCUCUGGAUUCCUCGUCACUCAGCAGGGCAUCUCUGAGGGAAAUGCC [U15C A50G A138G] the value was 1.38; for UACGUAAGUGGUUUUCCCCUGAUAGUGCUAAGGGGGCCUGGAAGUUUGGACUGGGCAGAGCUCAACACAGCGUGGCAAAGUAGCUGCGGCUAGACUGCCUCUCUGGAUUCCUCGUCACUCAGCAGGGCAUCUCUGAGAGAAAUGCC [G7A G82A U87C], 0.36.
Regarding UACGUAGGUGGUUUCCCCCUGAUGGUGCUAAGGGGGCCUGGAAGUUUGGACUGGGCAGAGCUCAACACAGCGUGGCAAAGUGGCAGUGGCUAGACUGCCUCUCUGGAUUCCUCGUCACUCAGCAGGGCAUCUCUGAGAGAAAUGCC [U15C A24G U85A], the self-cleavage was 0.32.
On to UACGCAGGUGGUUUUCCUCUGAUAGUGCUAAGGGGGCCUGGAAGUUUGGACUGGGCAGAGCUCAACACACCGUGGCAAAGUGGCUGUGGCUAGACUGCCUCUCAGGAUUCCACGUCACUCAGCAGGGCAUCUCUGAGAGAAAUGCU [U5C C18U G70C U104A U112A C146U], for which the self-cleavage turned out to be 0.07.
As for UACGUAGGUGGUCUUCCCCUGAUAGUGCUAAGGGGGCCUGGAAGUUUGGACUGGGCAGAGCUCAACACAGCGUGGCAAAGUGGCUGUGGCUGGACAGCCUCUCUGGAUUCCUCGUCGCUCAGCAGGACAUCUCUGAGAGAAAUGCC [U13C A92G U96A A117G G127A], the figure is 0.32; as for UACGUAGGUGGGUUUCCCCUGAUAGUGCUAAGGGGGCCUGGAAGUUUGGACUGGGCAGAGCUCAACACAGCGUGGCAAGGUGGCUGUGGCUAGACUGCCUCUCUGGAUUCCUCGUCACUCAGCAGGGCAUCUCUGAGGGAAAUGCC [U12G A79G A138G], 2.3.
As for UACGUAGGUGGUUUUCCCCUGAUAGUGCUAAGGGGGCCUGGAAGUAUGGACUGGGCAGAGCUCAACACAGCGUGGCAAAGUGGCUGUGGCUAGACUGCCACUCUGGAUUCCUCAUCACUCAGCAGGGCAUCUCUGAGAGAAAUGCC [U46A U100A G114A], the self-cleavage is 0.65.
For CACGUAGGUGGUUUUCCCCUGAUAGUGCUAAGGGGGCCUGGAAGUUUGGACUGGGCUGAGCUCAACACGGCGUGGCAAAGUGGCUGUGGCUAGACGGCCUCUCUGGAUUCCUCGUCACUCAGCAGGGCAUCUCUGAGAGAAAUGCC [U1C A57U A69G U96G] the value was 0; for UACGAAGGUGGUUUUCCCCUGAUAGUGCUAAGGGGGCCUGGAAGUUUGGACUGGGCAGAGCUCAACACAGCGUGGCAAAGUGGCUGUGGCUAGACUGCCUCUCUGGAUCCCCCGUCACUCAGCAGGGCAUCUCUGAGAGAAAUGCC [U5A U109C U112C], 1.38; for UACGUAGGUGGUUUUCCCCUGACAGUGCUAAGGGGGCCUGGAAGUUUGGACUGGGCAGAGCUCAACACUGCGUGGCAAAGUGGCUGUGGCUAGACUGCCUCUCUGGACUCCUCGUCACUCAGCAGGGCAUCUCUGAGAGAAAUGCC [U23C A69U U108C], 0.1.
As for UACGUAGGUGGCUUCCCCCUGAUAGUGCUAAGGGGGCCUGGAAGUCUGGACUGGGCAGAGCUCAACCCAGCGUGGCAAAGUGGCUGUGGCUAGACUGCCUCUCUGGAUUCCUCGUCACUCAGCAGGGCAUCUCUGAGAGAAAUGCC [U12C U15C U46C A67C], the figure is 0.
As for UACGUAGGCGGUUUUCCCCUGAUAGUGCUAAGGGGGCCUGGAAGUUUGGACUGGGCAGAGCCCAACACAGCGUGGCAAAGUGGCUGUGGCUAGACUGCCUCUCUGGAUUCCACGUCACUCAGCAGGGCAUCUCUGAGAGAAAUGCC [U9C U62C U112A], the figure is 0.12.
In the case of UACGUAGGUGGUUUUCCCCAGAUAGUGCUAAGGGGGCCUGGAAGUUUGGACUGGGCAGAGCUCAUCACAGCGUGGCAAAGUGGCCGUGGCUAGACUGCCUCUCUGGAUUCCUCGUCACUCAGCAGGGCAUCUCUGAGAGAAAUGCC [U20A A65U U85C], the self-cleavage worked out at 0.09.
Consider UACGUAGGUGGUUUUCCCCUGAUAGUGCUAAGGGGGCCUGGAAGUUUGGACUGGGCAGAGCUCAACACAGCGAGGCAAAGCGGCUGUGGCUAGACUGCCUCUCUAGAUUCCUCGACACUCAGCAGGGCAUCUCUGAGAGAAAUGCC [U73A U81C G105A U115A], for which the self-cleavage was determined as 1.6.
For UACGUAGGUGGUUUUCCCCUGAUAGUGCUAAGGGAGCCUGGAAGUUUGGACUGGGCAGAGCUCGACACAGCGUGGCAAAGUGGCUGUGGCUAGACUGCCUCUCUGGAUUCCUCGACACUCAGCAGGGCAUCUCUGAGAGAAAUGCC [G35A A64G U115A] the value was 0.17.
In the case of UACGUAGGUGGUAUUCCCCGGAUAGUGCUAAGGGGGCCUGGAAGCUUGGACUGGGCAGAGCUCAACACAGCGUGGCAAAGUGGCUGCGGCUAGACUGCCUCUCUGGAUUCCUCGUCACUCAGCAGGGCACCUCUGAGAGAAAUGCC [U13A U20G U45C U87C U130C], the self-cleavage came to 0.57.
